Measurements: PubChem BioAssay AID743279 (National Center for Advancing Translational Sciences (NCATS), 2014)
Hit rate of the full screen: of about 360,000 compounds, about 17,000 (4.7%) were called active. Inconclusive results, whose numbers are uncertain, are shown with a selection of clear calls. No stated cut-off is given here; in the data, active means activity change below about -50%; inconclusive means mostly about -30% to -49%; inactive means weaker than that.

assay: qHTS for Inhibitors of Inflammasome Signaling: IL-1-beta AlphaLISA Primary Screen; settings: THP-1 LPS/ATP IL-1B secretion, 16 h; at 57.5 µM, hits give low values
Summary of the method: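 THP-1 cells pretreated 1 hr with compounds (up to 57.5 uM final), then stimulated with LPS (250 ng/mL final) plus ATP (1.25 mM final); secreted IL-1B measured by AlphaLISA after 16 hr, decreased signal indicating inhibition.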
On the % scale 0 is the no-effect control and ±100 the full control effect.

Activity change, inactive:
CCn1nc(C(=O)Nc2cc(Cl)ccc2-n2cncn2)c2ccccc2c1=O 6.36%
O=C(NN1C(=O)c2cc(Br)ccc2NC1c1ccccc1Cl)c1ccncc1 (stereo not given) -5.03%
C(=N\Nc1ccc2ccccc2n1)/c1ccc2c(c1)OCCO2 0%
COc1cc2ccccc2cc1C(=O)OCC(=O)c1c(N)n(C)c(=O)n(C)c1=O -14.2%
O=C(/C=C/c1ccco1)N(Cc1ccc(F)cc1)C1CCS(=O)(=O)C1 (stereo not given) -11.5%
CCOc1ccc(C(C)=O)cc1COC(=O)c1ccc2c(c1)NC(=O)CS2 20.5%
CSc1nsc(SC)c1NC(=O)OCCc1ccccn1 16.3%
CCCN(C(=O)COC(=O)COc1c(C)cccc1C)c1c(N)n(Cc2ccccc2)c(=O)[nH]c1=O 22.5%
CC(=O)c1ccc(NS(=O)(=O)c2ccc(C(C)(C)C)cc2)cc1 0%
CCN1CCC2(CCN(C(=O)c3cc(COc4cc(C)ccc4C)on3)C2)C1 (stereo not given) 31.4%
Cc1c(Br)cccc1NC(=O)C1(C)CCN1C(C)C (stereo not given) -11.9%
Nc1nc(NS(=O)(=O)c2ccc(Cl)cc2)nn1-c1ccccc1 9.34%
O=C(CSc1nc2ccsc2c(=O)n1Cc1ccccc1)NCc1ccco1 -7.02%
Cn1cnc(S(=O)(=O)N2CCN(C(c3ccc(F)cc3)c3ccc(F)cc3)CC2)c1 -3.01%
CCOC(=O)CCCCCC(=O)Nc1ccc2c(c1)C(=O)N([C@H](C)CO)C[C@H](C)[C@H](CN(C)C(=O)C1CCCCC1)OCCCC[C@@H](C)O2 20.3%
CCC(C(=O)NCCCN1CCCCCC1)n1nc(C)c2sc3ccccc3c2c1=O (stereo not given) 0%
Nc1ccc(-c2n[nH]c(=O)c3ccccc23)cc1N 22.5%

Activity change, inconclusive:
COc1ccc(S(=O)(=O)N2CCC(C)CC2)cc1Br -35.2%
O=C(Nc1ccccc1)N1CCCN(c2c(Cl)cncc2Cl)CC1 -33.9%
O=C(CSc1nnc(CNC(=O)c2ccccc2F)o1)c1ccc(Cl)cc1 -36.6%
COCCNC(=O)Cn1nc(-c2ccccc2C)ccc1=O -37.7%
CC(=O)N1CCC(C(=O)N2c3ccccc3N=C(c3ccc4c(c3)OCO4)C2C(=O)NCc2ccccc2)CC1 (stereo not given) -43.7%
COc1cccc2sc(NC(=O)c3ccc(S(=O)(=O)N4CCOCC4)cc3)nc12 -47.7%
CCc1cccc2c(C#N)cn(CC(=O)NCCOC)c12 -34.8%
O=C(C1=C[C@@H](c2csc3ccccc23)C[C@@H](OCCCCO)O1)N1CCN(Cc2ccc3c(c2)OCO3)CC1 -33.2%
Cc1cccc(NC(=O)c2nc[nH]c2C(=O)N[C@@H](CC(C)C)C(=O)OC(C)(C)C)c1 -36.8%
Cc1cccc(C)c1Nc1c(-c2ccc(N3CCOCC3)cc2)nc2ncccn12 -42.7%
Cc1nn(-c2ccccc2)c2c1C1(C(=O)Nc3ccccc31)N1C(=N2)Sc2ccccc21 (stereo not given) -39.1%
CC1CCCCN1C(=O)COC(=O)c1cc([N+](=O)[O-])ccc1N (stereo not given) -35.4%
O=C(/C=C/c1ccc(Cl)cc1)N(Cc1ccccc1)c1ccccn1 -36.7%
OCC1OC(c2ccc(OCc3ccccc3)cc2OCc2ccccc2)C(O)C1O (stereo not given) -32.4%
O=C(Nc1ccc2nc3n(c(=O)c2c1)CCCCC3)c1ccccc1[N+](=O)[O-] -30.2%
COC(=O)CSc1nc2cc(OC)ccc2n1C -38.4%
O=C1c2ccccc2NC(c2cccc(Cl)c2)N1N=C1CCCCCC1 (stereo not given) -40.9%
CC(Sc1ccsc1[N+](=O)[O-])C(=O)NCCc1ccc(Cl)cc1 (stereo not given) -33.5%
Cc1sc2ncnc(N3CCN(c4ncccn4)CC3)c2c1C -47.3%
Nc1nc(-c2c(Cl)cccc2Cl)no1 -30.3%
COc1ccc(COC(=O)c2ccc(C)c(S(=O)(=O)N3CCOCC3)c2)cc1F -32.3%
CCOCCCNC(=O)c1cn(CC)c2ccc(S(=O)(=O)N(C)C3CCCCC3)cc2c1=O -34.1%
CCOC(=O)c1cc(=O)nc(N)s1 -48.2%
COc1ccc(-c2noc(CNS(=O)(=O)c3ccc(NC(C)=O)cc3)n2)cc1OC -44.4%
COc1ccc(C(=O)Nc2cccnc2)cc1 -30.4%
CC1CCN(S(=O)(=O)c2ccc3c(c2)N(CC(=O)NCCCN2CCCCC2)C(=O)CS3)CC1 -30.2%
FC(F)(F)c1cc(-c2ccccc2)nc(-n2cc(Cl)cn2)n1 -32.9%
O=C(c1ccoc1)N1CCCC(CO)(CCCc2ccccc2)C1 (stereo not given) -31.2%
Cc1ccc(S(=O)(=O)N2CCc3c2cc([N+](=O)[O-])cc3[N+](=O)[O-])cc1 -32.6%
Nc1ncnc(Sc2ccc(Cl)cc2)c1[N+](=O)[O-] -48.5%
CCOc1ccc2nc(N(CCN(C)C)C(=O)c3cc4ccccc4cc3OC)sc2c1 -45.6%
NCC(c1ccccc1)c1c[nH]c2ccccc12 (stereo not given) -43.9%

Activity change, active:
CC(=O)Nc1ccc(Nc2nc(-c3sc(C)nc3C)cs2)cc1 -50.4%
O=C1c2ccccc2-c2ncnc3c(N4CCOCC4)cc(N4CCOCC4)c1c23 -66.7%
CCOC(=O)Nc1ccc(C(=O)/C=C/c2ccccc2)cc1 -88.3%
Nc1nc(/C=C/c2cccnc2)nc(-c2ccccc2O)n1 -60.1%
Cc1[nH][nH]c(=O)c1C(c1c(C)[nH][nH]c1=O)c1cn(Cc2ccc(Cl)c(Cl)c2)c2ccccc12 -97.6%
COc1cc(CNC2CCCC2)c(Br)cc1OCc1ccccc1 -92.7%
